B1: chr1:66459500:66459501:+_ENSMUSG00000015222_ENSMUST00000114013|mus_mus|FALSE|FALSE (ssRNA)
RNA: GGGAGUUCUACAGUCCGACGAUCGAAGACAGGGGCAAAGGGUCGUGGUCCUUCUGAGACUCUCUCAUUCUUCAUAGUGUCUAAGGGAAGAGUGAAACUUCCACCAUGGAAGGGGCUUGGCAUGGGAGAGUCAAACUGCUUCCCCAACAGAGGAUUGAGCAUCA
B2: chr4:146681603:146681604:-_ENSG00000151612_ENST00000508784|hu_hu|FALSE|FALSE (ssRNA)
RNA: GGGAGUUCUACAGUCCGACGAUCAUUCACCCAACAGAAAACCAAAUGCACCAGUAUAUAAGCUUACAAGUGCUGAUUGCUAUUAAGGACACUCUCUUUAGGGUUUAACAAGACAAGAUUCCUUUCAGAGAAAAGUACGGAGAACAACAGAGGAUUGAGCAUCA
B3: chr18:13746249:13746250:+_ENSG00000101654_ENST00000262173|hu_mus|FALSE|FALSE (ssRNA)
RNA: GGGAGUUCUACAGUCCGACGAUCGUUUUCAUUGUUUUUAAUCUUUUCUUCAUAGAAUUCCAAAAAUGUUUUUUUGUAGAUUAGUUUCAUAUUAUACUUCUUUGCCAUUUCAGUUAGCAAUGGAAAAUAGACCAAGAAUUCAGGCAACAGAGGAUUGAGCAUCA
B4: 120829109_120830460_866_CDS_ENSG00000107581_ENST00000369144|human|control|control (ssRNA)
RNA: GGGAGUUCUACAGUCCGACGAUCUGGUUUUUUAGACAAGGAGAAUAGCCCGUGAAUAUCUUCCACAGCUUUGAAUGCUUCCUGCCACAAUUCCAUGCUGAUAGCACUGUCCAGCUGAACAAGUCUGGUUUCCAAAUGCAUGGACAACAGAGGAUUGAGCAUCA
B5: 42865057_42866260_6113_CDS_ENSG00000105429_ENST00000334370|human|control|control (ssRNA)
RNA: GGGAGUUCUACAGUCCGACGAUCGGAGCCCCCGCAGCCCAGCCUGUGGGCCUGAUCCCCGGACAAGCAGGCCCCAUGGCACCAGGUGCAGGCCCCAGACUGGUUACAAGCUUCAGGUGAGGACAGCAGGCGGCAGGGGUCAGGCAACAGAGGAUUGAGCAUCA
B6: chr18:52937122:52937123:-_ENSG00000196628_ENST00000354452|hu_mus|FALSE|FALSE (ssRNA)
RNA: GGGAGUUCUACAGUCCGACGAUCUAUACUGUCUGUUCCGUUGGCAGGGGGUGUGCAGGAAGAGGUGCUGUAAUGGUUUGUGCCACUACGAUGGAACGUGGACAUCGGAGGAAGACUGGAGUUGAUGUCUGCCGAGGAGUGGGACAACAGAGGAUUGAGCAUCA
B7: chr7:141445308:141445309:+_ENSG00000106028_ENST00000265304|hu_hu|hu_hu_hu_mus_False|18_68 (ssRNA)
RNA: GGGAGUUCUACAGUCCGACGAUCUAUGAUUGUUGUUGCUUGCCGCCUCACAUUGUUUUUAUCCAUGUAUUCACCAUAGUCCACUUUCCCUUCCACAAAUAUACGAGCCCCCUUUUUCACAUAUUGAUAUGCCACAUCUCUGAGCAACAGAGGAUUGAGCAUCA
B8: chr4:25749455:25749456:-_ENSG00000091490_ENST00000264868|hu_hu|hu_hu_hu_mus_False|1_1 (ssRNA)
RNA: GGGAGUUCUACAGUCCGACGAUCGCACUAUGACCUCUAGAAAAAUCCACAGGGGGAAAAAAUGUAAACCAAUGUACAAUGUUAUCGCCUUCCCUGUGUGUGGAGUGUUUGUCUCAAGGCUCCUUCUAGCUGCUGGACUGCUAGCAACAGAGGAUUGAGCAUCA
B9: chr17:64631184:64631185:-_ENSMUSG00000024083_ENSMUST00000172818|mus_mus|FALSE|FALSE (ssRNA)
RNA: GGGAGUUCUACAGUCCGACGAUCUGGCUUGUUACACAGCAAUCUGCAGCAGUGUAAGUUUAAUCAGUAAGUGCCAUAACUAGUCAACAGUACAUAAAAGAAAACAAACAAACAAACCACACAAUUCACAAAUAUCCACAGUAUCAACAGAGGAUUGAGCAUCA
B10: 48487616_48487736_109_5pUTR_ENSMUSG00000039347_ENSMUST00000040361|mouse|control|control (ssRNA)
RNA: GGGAGUUCUACAGUCCGACGAUCAUGCUCAGGUGGGGUAUCAGAUCGAACGGCAGACUCUAAGCAGGUGCAAGUCUCGGCAGAGGGCUGUGCGCAUGCGCAACGGAAUCUCAGCCGGGAAGGCCCUGGACCAAGCGAAUCUGCCAACAGAGGAUUGAGCAUCA
B11: 7505514_7506983_708_CDS_ENSMUSG00000024758_ENSMUST00000025667|mouse|control|control (ssRNA)
RNA: GGGAGUUCUACAGUCCGACGAUCCAGCUCGGCGAGAAUCAGAAGGGUAAUUCCAUUAAAAACAGCACCAACAUAGGUCAUCAGCCACAUGAAGACAGCCAGCUUCAAGGAGUCAACCAAGUCUUCUACCAGAAAGAGACGAAUCAACAGAGGAUUGAGCAUCA
B12: chr5:36814161:36814162:+_ENSMUSG00000029198_ENSMUST00000031099|mus_hu|FALSE|FALSE (ssRNA)
RNA: GGGAGUUCUACAGUCCGACGAUCAGUUCAUUAAUGCAGUUGGGCAACCGGCUUUUCUGUUUAGCCACUGGUUACUUAAGGUUUCCAAUAAGGUUUGGGAAAAGGUCACACGUACUCAUAGAUGAGAAACAAUGAACCAGCCUUCAACAGAGGAUUGAGCAUCA
B13: 97424773_97425521_2069_CDS_ENSMUSG00000021670_ENSMUST00000022176|mouse|control|control (ssRNA)
RNA: GGGAGUUCUACAGUCCGACGAUCAGAGAUCAUGUUCAUGCCCAUGGCGUCCCCCGUCCUGGACUGGAAACGGAUAUAGAGGUUGCGUCCUGCCAUCGUCACGUGGAGUUUCUGUAGACGAGCAAAUCUGCUGGUGCUAUCAAACAACAGAGGAUUGAGCAUCA
B14: 215785255_215792339_1908_CDS_ENSG00000136636_ENST00000259154|human|control|control (ssRNA)
RNA: GGGAGUUCUACAGUCCGACGAUCGCCUGUGAACAAGUAGCGCCUUGGUCUUGAGCCCAUCCUACUGGAUCCCUCACAUUCCCUCACUGUAAAUGAGGAUAUUGUAGUACAGUCAACAGCCUGGAUCUCACAUAUUCUUUUUCCCAACAGAGGAUUGAGCAUCA
B15: 102240484_102240604_513_CDS_ENSMUSG00000027189_ENSMUST00000102573|mouse|control|control (ssRNA)
RNA: GGGAGUUCUACAGUCCGACGAUCACUGUCUUCCUCGGUCUCGCUCUCUUCUUCCGACUCACUGUCUACCUCCGUCUCGCUCUCUUCUUCCCCGACCUCGCUCUCUACCUCCCCCUCGGCCUCCCCUUUGGCCUCGCCGUCUUCCAACAGAGGAUUGAGCAUCA
B16: chr3:160150142:160150143:+_ENSG00000113810_ENST00000344722|hu_mus|FALSE|FALSE (ssRNA)
RNA: GGGAGUUCUACAGUCCGACGAUCAAAACCAGCCAUAAAUUCAUUCAGCCUUUGUUUUCGAAGAUCUUCAUAUGCUUGUCUAAAAUUAUCUCUUUCAGAAGUAAUUUUGUCCAGUUCGGCUACUCUUUGCAAAUAUAAAUCUUCCAACAGAGGAUUGAGCAUCA
B17: 33127454_33129492_512_CDS_ENSG00000176102_ENST00000323959|human|control|control (ssRNA)
RNA: GGGAGUUCUACAGUCCGACGAUCCACCCAAAUCUGAUAGGACAUAAUUUCCAUUCCAAUUUUAUCCAGUGCAAAGUCAUAUGCUUGAGCCAUUUUUUCUUUGUAACUUGGUAGUUUACCCUUGGUUUCUCGGACAUAUGAAAGCAACAGAGGAUUGAGCAUCA
B18: chr9:103913939:103913940:+_ENSMUSG00000032558_ENSMUST00000035167|mus_mus|FALSE|FALSE (ssRNA)
RNA: GGGAGUUCUACAGUCCGACGAUCAAAAUAAACAGCGAGGAAGAAAUAUCCCAUUGUCUCGCACAUUCUUUUAAGUUUAGGUGAAUGGUCCUUAAGGAACAGUUCCAUUUCGGGCUGUGUUUCAUCUGUGUAGAUGAGGUAGCACAACAGAGGAUUGAGCAUCA
B19: 65898798_65898918_1790_3pUTR_ENSG00000213625_ENST00000371065|human|control|control (ssRNA)
RNA: GGGAGUUCUACAGUCCGACGAUCUUCGGGAAGAAGCCAGAGCCGUAGAGAAGUCAGGGCAAACCAGAACUGUUGAGGAGUAGGGGUGGGGGGCAGAGGGAAGGAGCUGGGGAGAAGUGCCAGAUCAUAAAGGAAAUGUAAAAGCAACAGAGGAUUGAGCAUCA
B20: chr14:76904430:76904431:+_ENSMUSG00000022010_ENSMUST00000022587|mus_mus|mus_mus_mus_hu_True|48_108 (ssRNA)
RNA: GGGAGUUCUACAGUCCGACGAUCUGCUGGAAAAAAAACCCUCGUGGAAAAAAAGAGGGAACACCAGCAGCCUUGUAUAAGCUAGAUAAAACCGCCUGGCUUUCCGCAGCCCAGGGAGAAACAGAAAACGGCAGCCCUAAUUUACAACAGAGGAUUGAGCAUCA
B21: chr14:102349618:102349619:+_ENSG00000078304_ENST00000445439|hu_hu|FALSE|FALSE (ssRNA)
RNA: GGGAGUUCUACAGUCCGACGAUCUACAAACUUCUGAUCAAUAUAUUUCUUCGCUAUAUUAGGUUGGAAAUCUGGAGACUCUAAAAAUCUUAAGAAAAAUUCAUAAACAAGCUGUAGAUGAGGCCAGGCUGCUUCUAACGUUGGCAACAGAGGAUUGAGCAUCA
B22: chr3:142455598:142455599:-_ENSMUSG00000004591_ENSMUST00000043812|mus_hu|FALSE|FALSE (ssRNA)
RNA: GGGAGUUCUACAGUCCGACGAUCAAAAUAUUUCAUCAAAUUAUUUUUGAGACUUUUGAGGUACAGCUUUAGUGUUAUAAUUCAUUUUUUAAUAAAAUAUAGACUGUUUUAUCAAAAAUAUUUAUACAUUCUGUUACAAUAUAUCAACAGAGGAUUGAGCAUCA

For 22 molecules, binding signal results are on record in article PMC12136788.

Some of the results follow.

This experiment addresses T1, UNK ZnF1-3 (human, UniProt Q9C0B0 31-174).
T1 sequence: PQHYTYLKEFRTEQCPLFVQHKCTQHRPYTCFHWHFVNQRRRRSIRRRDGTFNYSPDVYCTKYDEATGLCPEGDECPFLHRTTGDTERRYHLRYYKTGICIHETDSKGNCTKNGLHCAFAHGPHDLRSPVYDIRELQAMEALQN
The experiment can be described thus: nsRBNS (natural sequence RNA bind-n-seq); RBNS binding buffer (assumed for nsRBNS): 25 mM Tris pH 7.5, 150 mM KCl, 3 mM MgCl2, 0.01% Triton X-100, 500 ug/ml BSA, 20 U/ml SUPERase-In, 4 C; UNK is unkempt and MSI1 is Musashi-1; names of the RNAs are library labels; protein concentration not given here; high values mean tight binding.
For the molecule B1, the binding signal amounted to 0.82 enrichment R.
For B2, the binding signal amounted to 1.56 enrichment R.
As for B3, the binding signal is 0.612 enrichment R.
The figure for B4 is 0.618 enrichment R.
The figure for B5 is 0.719 enrichment R.
The figure for B6 is 1.26 enrichment R.
In turn, B7 returned a binding signal of 0.739 enrichment R.
As for B8, the figure is 1.02 enrichment R; as for B9, 1.57 enrichment R.
The molecule B10 displayed a binding signal of 0.494 enrichment R.
Regarding B11, the binding signal was found to be 1.75 enrichment R.
The figure for B12 is 1.44 enrichment R; for B13 it is 1.14 enrichment R; for B14 it is 1.27 enrichment R.
As for B15, the figure is 0.45 enrichment R.
The figure for B16 is 0.425 enrichment R; for B17 it is 1.07 enrichment R; for B18 it is 0.733 enrichment R.
B19 came in with a binding signal of 3.27 enrichment R.
The figure for B20 is 1.66 enrichment R.
Consider B21, for which the binding signal came to 1.73 enrichment R.
Take B22: the binding signal is 0.68 enrichment R.
